Out of some 52,000 compounds screened, about 1,700 (3.3%) were called active. No stated cut-off is given here; in the data, active means survival mostly below about 52% (no sharp cut-off); inactive means mostly above about 56%. Some of the results follow.

The test system of this experiment is Wild type. Nature of the experiment: growth inhibition of S. aureus wild type versus tarO mutant, primary screen, teichoic acid synthesis inhibitors, RN4220, OD600 (AID 463173). To be noted: S. aureus RN4220 wild type/DeltatarO growth, OD600, 18 h, hits give low values, screened at 18.75 µg/mL (by protocol).
Consider `Cc1ccc(OCc2cc(=O)n3ccsc3n2)c(NC(=O)c2ccco2)c1`, for which the survival is inactive: 82%. Take `COc1ccc(-c2nc3cc(NC(=O)c4cc5ccccc5o4)ccc3o2)cc1`: the survival was inactive: 80%.

In the case of `CCOC(=O)c1cc(-c2ccccc2)n(CCC(=O)NCCc2ccc(OC)c(OC)c2)c1C`, the survival was inactive: 71%.

As to `Cc1ccn2c(Nc3ccccc3C)c(-c3ccccc3)nc2c1`, the survival was active: -3%. Turning to `COc1ccc(S(=O)(=O)N2CCC(C(=O)NC3CC3)CC2)cc1Cl`, the survival is inactive: 108%.

Regarding `CCn1ccc2cc(S(=O)(=O)N3CCC(C(=O)NCc4ccc(F)cc4)CC3)ccc21`, the survival is inactive: 80%. As for `Cc1ccc(NCc2cccn2-c2nnc(N3CCC(C(=O)NCc4ccc(F)cc4)CC3)s2)cc1`, the survival was inactive: 101%. Take `Cc1ccc(NC(=O)CSc2nnc(COc3ccc(Cl)cc3)o2)c(C)c1`: the survival is inactive: 91%. On to `O=C(Nc1ccc2nc(SCC(=O)N3CCOCC3)sc2c1)c1ccccc1Cl`, for which the survival was inactive: 82%. For the compound `Cc1cccc(OCC(=O)Nc2ccccc2OCc2cc(=O)n3cc(C)ccc3n2)c1`, the survival was inactive: 87%.

Regarding `O=C(Cn1c(=O)n2nc(-c3cccc(F)c3)nc2c2ccccc21)NCc1ccc(Cl)cc1`, the survival was inactive: 66%. As for `COc1cccc(NC(=O)Cn2c(=O)n(Cc3ccco3)c(=O)c3cc(OC)c(OC)cc32)c1`, the survival is inactive: 138%. Turning to `CCc1ccc(NC(=O)CSc2ccccn2)cc1`, the survival is inactive: 102%. As for `CN(C)c1ccc(C(=O)NCc2ccc3c(c2)CCN3C(=O)c2ccccc2)cc1`, the survival is inactive: 119%. `CC(C)CCNC(=O)CSc1nc2ccccc2nc1Cc1ccc(Cl)cc1`: the survival is inactive: 71%. Take `CSc1ccc(CNC(=O)Cn2ccc3cc(S(=O)(=O)N4CCCC4)ccc32)cc1`: the survival is inactive: 83%. In the case of `COc1ccccc1CNC(=O)CS(=O)(=O)Cc1nc(-c2ccccc2C)oc1C` it was inactive: 75%; in that of `Cc1cc(C)cc(NC(=O)CCN2C(=O)c3ccccc3Sc3ncccc32)c1`, inactive: 87%.

Consider `CC1CCN(c2nc(-c3ccc(Br)cc3)nc3ccccc23)CC1`, for which the survival is inactive: 105%. As for `CN(C)c1ccc(CNC(=O)c2sc3ncccc3c2-n2cccc2)cc1`, the survival was inactive: 75%.

As for `CCN(C(=O)CC(C)C)c1nnc(-c2ccccc2C)s1`, the survival was inactive: 96%. Regarding `Cc1ccc(-c2cc(C(F)(F)F)c(C#N)c(SCC(=O)Nc3ccccc3F)n2)cc1`, the survival was inactive: 73%. Consider `CCN(c1ncnc2c1cnn2-c1cccc(Cl)c1)C1CCCCC1`, for which the survival is inactive: 45%.

On to `CC1CCCCN1CCCNC(=O)Cn1ncc2c3ccccc3n(Cc3ccccc3F)c2c1=O` (configuration not stated), for which the survival is inactive: 90%. In the case of `COc1cc(Cl)c(NS(=O)(=O)c2ccc(-c3coc(C)n3)cc2)c(OC)c1`, the survival was inactive: 69%. In the case of `COc1ccc(C2C(=O)N(C3CCCCC3)CC(=O)N2C2CCCCC2)cc1` (configuration not stated), the survival was inactive: 76%.

With `COc1cccc(CNC(=O)CN2C(=O)CSc3ccc(S(=O)(=O)N4CCCC4)cc32)c1`, the survival is inactive: 94%.

Turning to `COCCn1c(C)cc(O)c(C(c2ccc(Cl)cc2)N2CCCCC2)c1=O` (configuration not stated), the survival was inactive: 84%. Regarding `Cc1cc(C)c(NC(=O)CN2C(=O)CCSc3ccc(S(=O)(=O)N4CCCC4)cc32)c(C)c1`, the survival is inactive: 82%. The result for `O=C(c1ccccc1)N1CCCCC1CCN1CCCCC1` (configuration not stated) reads inactive: 86%; that for `O=C(Nc1ccc2nc(SCC(=O)N3CCOCC3)sc2c1)c1ccc(Cl)cc1`, inactive: 79%. The result for `CCN(Cc1ccccc1)C(=O)C(CC(C)C)NS(=O)(=O)c1ccc2c(c1)CCN2C(C)=O` (configuration not stated) reads inactive: 74%. In the case of `Cc1cccc(N2CCN(C(=O)c3nn(C)c4c3CS(=O)(=O)c3ccccc3-4)CC2C)c1` (configuration not stated) it was inactive: 82%; in that of `CN(C)c1ccc(Cl)nn1`, inactive: 119%; in that of `Cc1ccc(-n2c(=O)c3ccccc3n(CC(=O)Nc3cccc(C(F)(F)F)c3)c2=O)cc1`, inactive: 78%. As for `N#C/C(=C\c1ccc(Cl)cc1)c1nc(-c2cc3c(ccc4ccccc43)oc2=O)cs1`, the survival was inactive: 69%. As for `O=C(Cn1c(=O)n(-c2ccccc2)c(=O)c2sc3ccccc3c21)NC1CCCC1`, the survival is inactive: 138%. With `COCC(C)NCc1ccccc1C` (configuration not stated), the survival is inactive: 100%. Consider `CCOC(=O)C1C(=O)N(C(=O)c2cncc(Br)c2)CC1c1ccccc1` (configuration not stated), for which the survival is inactive: 112%. For the compound `CN(C1CCCCC1)S(=O)(=O)c1ccc2c(c1)c(=O)c(C(=O)NCc1ccc(Cl)cc1)cn2C`, the survival was inactive: 84%. On to `O=C(CN1C(=O)CC(c2ccc(F)cc2)=Nc2ccccc21)NCc1ccccc1Cl`, for which the survival is inactive: 71%. In the case of `Cc1ccc(C)c(Nc2nn3c(=O)c4ccc(C(=O)NCc5cccs5)cc4nc3s2)c1` it was inactive: 65%; in that of `CC(NC(=O)c1cc2sccc2n1Cc1ccc(F)cc1)c1ccccc1` (configuration not stated), inactive: 88%; in that of `O=C(Cn1c(C(=O)N2CCN(C3CCCCC3)CC2)cc2sccc21)c1ccccc1`, inactive: 116%.

For the compound `COc1ccc(-c2nn(-c3ccc(F)cc3F)c3c2cnc2ccc(F)cc23)cc1`, the survival is inactive: 71%. With `CC(=O)N1CCCc2cc(S(=O)(=O)NCc3ccc(OC(C)C)cc3)ccc21`, the survival was inactive: 77%.

On to `CCc1cccc(C)c1NS(=O)(=O)c1ccc(-n2cccn2)cc1`, for which the survival was inactive: 128%.

Consider `Cn1c(=O)oc2cc(S(=O)(=O)Nc3ccccc3)ccc21`, for which the survival was inactive: 78%. With `CCOc1ccc(-c2nonc2NC(=O)c2oc3cc(Br)ccc3c2C)cc1`, the survival was inactive: 100%.

Consider `N#Cc1ccccc1NC(=O)C(=O)NCC(c1cccnc1)N1CCN(c2ccccc2)CC1` (configuration not stated), for which the survival was inactive: 99%. Turning to `Cc1cccc(C(=O)Nc2cccc(C(=O)OCc3cc(=O)n4nc(C5CC5)sc4n3)c2)c1`, the survival is inactive: 59%.

In the case of `CCN1CCN(C(=O)c2ccc3c(c2)N(Cc2cc(C)ccc2C)C(=O)c2ccccc2S3(=O)=O)CC1`, the survival was inactive: 81%. In the case of `Cc1ccc(OCC(=O)Nc2ccc(-c3nc4ccc(C)cc4o3)cc2)cc1`, the survival was inactive: 66%. In the case of `CCOc1ccc(C(=O)Nc2ccc3nc(SCC(=O)N4CCOCC4)sc3c2)cc1`, the survival is inactive: 105%.

Consider `CCCSCCCNC(=O)CN1C(=O)COc2ccc(S(=O)(=O)N3CCCCCC3)cc21`, for which the survival is inactive: 79%.

Take `COc1cc(SC)ccc1C(=O)NCC#N`: the survival is inactive: 92%. Consider `CCOc1ccccc1Nc1ccc2cc(S(=O)(=O)N3CCCCC3)ccc2n1`, for which the survival was inactive: 76%.

For the origin of these results see PubChem BioAssay AID463173 (ICCB-Longwood Screening Facility, Harvard Medical School, 2010).
